Reference: the RNAGym collection of RNA variant scans (doi:10.7554/elife.90254)
Read counts are not given, so values of variants with three or more changes are uncertain.

B1: LINE1-mini (parent)
chain: GGCAGAGCUCAACACAGCGUGGCAAAGUGGCUGUGGCUAGACUGCC

Variants of: B1
Assay: self-cleavage, relative activity (ratio to wild type); higher = more cleavage; in vitro, sequencing; the parent is a self-cleaving ribozyme

| Variant | self-cleavage |
| --- | --- |
| A6G U9C C18A G29C U34A | 0.01 |
| A6G U9C G17C G19A A26C | 0.01 |
| A6G U9C G22A C23U A26C C42U | 0.04 |
| A6G U9G A11G A12C G17A G30A G44U | 0.03 |
| A6G U9G C10G G29A | 0.01 |
| A6G U9G C10U C13A C18U G29A G36C | 0.03 |
| A6G U9G C23A G30U C37U A39U G40C U43A | 0 |
| A6G U9G G17A A25G | 0.01 |
| A6G U9G G21A G22A A24G | 0.06 |
| A6G U9G G22A | 0.06 |
| A6G U9G G30U C31G G40U U43C C46A | 0.09 |
| A6G U9G G36U | 0.03 |
| A6G U9G U20A C37U A41C | 0.02 |
| A6G U9G U28A G44A | 0.04 |
| A6G U20A G33A | 0.03 |
| A6G U20C A39C | 0 |
| A6G U20G G44U | 0.05 |
| A6G U28A G40U | 0.06 |
| A6G U28A G44U C46U | 0.07 |
| A6G U28C A39U | 0.07 |
| A6G U32A C37G | 0.05 |
| A6G U32G C37G | 0 |
| A6G U32G G36A | 0.18 |
| A6G U34A C37A C45A | 0.01 |

| Variant | self-cleavage |
| --- | --- |
| A6G U38C G40U | 0.09 |
| A6U A11C C13A A16U C42G U43A | 0.02 |
| A6U A11C C13U A26C U28C G40U | 0.04 |
| A6U A11C C37U | 0.05 |
| A6U A11C G22U | 0.07 |
| A6U A11C U34C G36U A39C | 0 |
| A6U A11G A14C | 0 |
| A6U A11G A16C C18U G22A G30A C31G G35U | 0.01 |
| A6U A11G C15U | 0.02 |
| A6U A11G G21A G35U A41C G44A C45U | 0.02 |
| A6U A11U A12G G21A G36U | 0.03 |
| A6U A11U C13A U28A | 0.01 |
| A6U A11U C23U G33U G40U | 0.04 |
| A6U A11U G22C | 0.17 |
| A6U A12C A16C A24C | 0.02 |
| A6U A12C A16C C18A A24C U43G | 0.06 |
| A6U A12C A25C | 0.03 |
| A6U A12C C18A | 0 |
| A6U A12C G19A U28C C42U | 0 |
| A6U A12C G21A U32G C37A A39C | 0.13 |
| A6U A12G A16G G22A G27C | 0.02 |
| A6U A12G A26U | 0.11 |
| A6U A12G A41U | 0.03 |
| A6U A12G C31G G35A | 0.03 |

| Variant | self-cleavage |
| --- | --- |
| A6U A12G G17A C31U C42A | 0.02 |
| A6U A12G G22C C31U | 0.01 |
| A6U A12G U28C C31G C46A | 0.16 |
| A6U A12U A16G G17A | 0.02 |
| A6U A12U C13A A16C C23A C31G | 0.01 |
| A6U A12U C13U C23G U32C | 0.05 |
| A6U A12U C37G U43A | 0.04 |
| A6U A12U U20A G36A | 0.04 |
| A6U A14C A16C | 0.26 |
| A6U A14C A24C A41U | 0.05 |
| A6U A14C A39G | 0.02 |
| A6U A14C A41C | 0.32 |
| A6U A14C G17U G19C C23A C42G | 0.08 |
| A6U A14C G21A G29U G33C U43C | 0.03 |
| A6U A14C U28A | 0.15 |
| A6U A14G C15A A16U G30U A39G | 0.06 |
| A6U A14G C23A G33U | 0.15 |
| A6U A14G G33U G40U | 0.14 |
| A6U A14G G36U | 0.17 |
| A6U A14G U34G G36C G44A | 0.03 |
| A6U A14U A16C C18G A24U U38G U43C C45U | 0.3 |
| A6U A14U A16G | 0 |
| A6U A14U C15A G19C | 0.02 |
| A6U A14U G22U A25U G35A | 0.1 |

| Variant | self-cleavage |
| --- | --- |
| A6U A14U G35A | 0.37 |
| A6U A16C A26C | 0 |
| A6U A16C C37G | 0.02 |
| A6U A16C G17U | 0.14 |
| A6U A16G A39C C46U | 0.18 |
| A6U A16G C18A G19A | 0.04 |
| A6U A16G G17A | 0.1 |
| A6U A16G G19A G29A | 0.89 |
| A6U A16G G33U | 0.01 |
| A6U A16U A41U | 0.16 |
| A6U A24C G27A | 0.44 |
| A6U A24C G29C | 0.09 |
| A6U A24G C45G C46A | 0.6 |
| A6U A24G U34G | 0.15 |
| A6U A24G U34G C42A | 0.08 |
| A6U A24G U38A C42U | 0.12 |
| A6U A24U C46A | 0.19 |
| A6U A25G C45U C46A | 0.01 |
| A6U A25G G27C G36A G40U U43G | 0.04 |
| A6U A25G G30U G35U C37G | 0.07 |
| A6U A25U A39G | 0.21 |
| A6U A26U C31A C45U | 0.16 |
| A6U A26U G35A G36C | 0.24 |
| A6U A26U G35U | 0.1 |

| Variant | self-cleavage |
| --- | --- |
| A6U C8A A12G G29C C37U | 0.05 |
| A6U C8A A16C A26G G27A G35A C46A | 0.13 |
| A6U C8A A26G | 0.27 |
| A6U C8A C10G G27A | 0.02 |
| A6U C8A C10G U34A C46U | 0.04 |
| A6U C8A C13A | 0.68 |
| A6U C8A G36U | 0.14 |
| A6U C8A G40A | 0.36 |
| A6U C8A U9G G21C A26C A41C G44A | 0.03 |
| A6U C8A U9G G35U | 0 |
| A6U C8G A14G C18U C23U U32G G33U | 0.01 |
| A6U C8G A26G G33A C42U | 0.3 |
| A6U C8G C13U G22C A26G G29U C37G | 0.42 |
| A6U C8G C18G U20C C37G | 0.09 |
| A6U C8G C42A U43C | 0.02 |
| A6U C8G C45G | 0.21 |
| A6U C8G G21A A24G | 0.36 |
| A6U C8G U9A U28A G40A G44U | 0.16 |
| A6U C8G U9C A26C G29U | 0.03 |
| A6U C8U A11G G27U | 0.01 |
| A6U C8U A12G A26G | 0.06 |
| A6U C8U C13G C37G A39G C46G | 0.09 |
| A6U C8U C13G C37U | 0.73 |
| A6U C8U C15A | 0.06 |

| Variant | self-cleavage |
| --- | --- |
| A6U C8U C31G | 0.69 |
| A6U C8U G17U U32A | 0.06 |
| A6U C8U G21A G36U | 0.28 |
| A6U C8U G22C A25G U28C C31A | 0.06 |
| A6U C8U G22C G40A | 0.19 |
| A6U C8U G30C | 0.48 |
| A6U C8U U20A G33U | 0.03 |
| A6U C10A A25G | 0.05 |
| A6U C10A C15A C18A G29U C31U U38A | 0.02 |
| A6U C10A C18A | 0.03 |
| A6U C10A C42U | 0.02 |
| A6U C10A G19A C37A | 0.02 |
| A6U C10A G27U U32A C37U U43C G44U C45G | 0.01 |
| A6U C10A G40U | 0.01 |
| A6U C10A U28G | 0.04 |
| A6U C10G A11U | 0.05 |
| A6U C10G A16G C37A G40A G44C | 0.02 |
| A6U C10G A25G | 0 |
| A6U C10G G17U | 0.04 |
| A6U C10G G33U | 0.01 |
| A6U C10G U28A C37U | 0.01 |
| A6U C10G U34A A41C C46U | 0.02 |
| A6U C10U C18U G29C A39G | 0.03 |
| A6U C10U C46A | 0.04 |

| Variant | self-cleavage |
| --- | --- |
| A6U C10U G27U | 0.08 |
| A6U C13A A14C A24U A26U G35A C37U | 0.09 |
| A6U C13A A14G | 0.22 |
| A6U C13A A14U G30C U38A | 0.15 |
| A6U C13A A16G G22U U28G | 0.01 |
| A6U C13A A39G | 0.28 |
| A6U C13A C15U G17A G27C | 0.06 |
| A6U C13A C18U | 0.14 |
| A6U C13A G17C | 0.43 |
| A6U C13A G44C | 0.02 |
| A6U C13A G44U C46U | 0.2 |
| A6U C13A U43G | 0.33 |
| A6U C13G A14C A25G G33A C42U | 0.01 |
| A6U C13U A16C | 0.22 |
| A6U C13U A24U G27C G33A U34C | 0.29 |
| A6U C13U C15A U43C G44A C46A | 0.03 |
| A6U C13U C37G A41U | 0.03 |
| A6U C13U G30U | 0.08 |
| A6U C13U U32C | 0.39 |
| A6U C15A A24U G33U | 1.08 |
| A6U C15A C23U U28A A39U | 0.55 |
| A6U C15A C46U | 0.15 |
| A6U C15A G29C C31G G35A G40U | 0.1 |
